# Some of the results follow.
# B1: Nictaba (Nicotiana tabacum), Q94EW1 (protein)
# chain: MQGQWIAARDLSITWVDNPQYWTWKTVDPNIEVAELRRVAWLDIYGKIETKNLIRKTSYAVYLVFKLTDNPRELERATASLRFVNEVAEGAGIEGTTVFISKKKKLPGELGRFPHLRSDGWLEIKLGEFFNNLGEDGEVEMRLMEINDKTWKSGIIVKGFDIRPN
# What was measured:
# Assay in all cases: glycan array binding signal (z-score within array); higher = stronger binding
# Settings in all cases: glycan notation: IUPAC condensed, linker removed
# [1] = biological target: Gal(b1-3)GalNAc(b1-3)Gal(b1-4)GlcNAc
# Procedure, shortened: (§1)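 Columns mapping to the same glycan were averaged after glycan names were converted to IUPAC-condensed notation. The data come from 3228 arrays in the Consortium for Functional Glycomics database, limited to those with an available protein sequence. Binding is reported as a within-array Z-score averaged across arrays of one protein sequence and across linkers.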
# [2] = biological target: Gal(b1-3)GalNAc(b1-4)Gal(b1-4)Glc
# Procedure, shortened: as §1
# [3] = biological target: Gal(b1-3)GalNAc(b1-4)[Neu5Ac(a2-3)]Gal(b1-4)Glc
# Procedure, shortened: as §1
# Gal(b1-3)GlcNAc = biological target: Gal(b1-3)GlcNAc
# Procedure, shortened: as §1
# [4] = biological target: Gal(b1-3)GlcNAc(a1-3)Gal(b1-4)GlcNAc
# Procedure, shortened: as §1
# [5] = biological target: Gal(b1-3)GlcNAc(a1-6)Gal(b1-4)GlcNAc
# Procedure, shortened: as §1
# Gal(b1-3)GlcNAc(b1-2)Man = biological target: Gal(b1-3)GlcNAc(b1-2)Man
# Procedure, shortened: as §1
# [6] = biological target: Gal(b1-3)GlcNAc(b1-2)Man(a1-3)[Gal(b1-3)GlcNAc(b1-2)Man(a1-6)]Man(b1-4)GlcNAc(b1-4)GlcNAc
# Procedure, shortened: as §1
# [7] = biological target: Gal(b1-3)GlcNAc(b1-2)Man(a1-3)[Gal(b1-3)GlcNAc(b1-2)Man(a1-6)]Man(b1-4)GlcNAc(b1-4)[Fuc(a1-6)]GlcNAc
# Procedure, shortened: as §1
# [8] = biological target: Gal(b1-3)GlcNAc(b1-2)Man(a1-3)[GlcNAc(b1-4)][Gal(b1-3)GlcNAc(b1-2)Man(a1-6)]Man(b1-4)GlcNAc(b1-4)GlcNAc
# Procedure, shortened: as §1
# [9] = biological target: Gal(b1-3)GlcNAc(b1-2)[Gal(b1-3)GlcNAc(b1-6)]Man(a1-6)[Gal(b1-3)GlcNAc(b1-2)Man(a1-3)]Man(b1-4)GlcNAc(b1-4)GlcNAc
# Procedure, shortened: as §1
# [10] = biological target: Gal(b1-3)GlcNAc(b1-3)Gal(b1-3)GlcNAc
# Procedure, shortened: as §1
# [11] = biological target: Gal(b1-3)GlcNAc(b1-3)Gal(b1-4)Glc
# Procedure, shortened: as §1
# [12] = biological target: Gal(b1-3)GlcNAc(b1-3)Gal(b1-4)GlcNAc
# Procedure, shortened: as §1
# [13] = biological target: Gal(b1-3)GlcNAc(b1-3)Gal(b1-4)GlcNAc(b1-2)Man(a1-3)[Gal(b1-3)GlcNAc(b1-3)Gal(b1-4)GlcNAc(b1-2)Man(a1-6)]Man(b1-4)GlcNAc(b1-4)GlcNAc
# Procedure, shortened: as §1
# [14] = biological target: Gal(b1-3)GlcNAc(b1-3)Gal(b1-4)GlcNAc(b1-2)[Gal(b1-3)GlcNAc(b1-3)Gal(b1-4)GlcNAc(b1-6)]Man(a1-6)[Gal(b1-3)GlcNAc(b1-3)Gal(b1-4)GlcNAc(b1-2)Man(a1-3)]Man(b1-4)GlcNAc(b1-4)[Fuc(a1-6)]GlcNAc
# Procedure, shortened: as §1
# [15] = biological target: Gal(b1-3)GlcNAc(b1-3)Gal(b1-4)GlcNAc(b1-3)Gal(b1-4)GlcNAc(b1-2)[Gal(b1-3)GlcNAc(b1-3)Gal(b1-4)GlcNAc(b1-3)Gal(b1-4)GlcNAc(b1-6)]Man(a1-6)[Gal(b1-3)GlcNAc(b1-3)Gal(b1-4)GlcNAc(b1-3)Gal(b1-4)GlcNAc(b1-2)Man(a1-3)]Man(b1-4)GlcNAc(b1-4)[Fuc(a1-6)]GlcNAc
# Procedure, shortened: as §1
# [16] = biological target: Gal(b1-3)GlcNAc(b1-3)Gal(b1-4)GlcNAc(b1-6)[Gal(b1-3)GlcNAc(b1-3)]Gal(b1-4)Glc
# Procedure, shortened: as §1
# [17] = biological target: Gal(b1-3)GlcNAc(b1-3)Gal(b1-4)[Fuc(a1-3)]GlcNAc
# Procedure, shortened: as §1
# [18] = biological target: Gal(b1-3)GlcNAc(b1-3)Gal(b1-4)[Fuc(a1-3)]GlcNAc(b1-6)[Gal(b1-3)GlcNAc(b1-3)]Gal(b1-4)Glc
# Procedure, shortened: as §1
# [19] = biological target: Gal(b1-3)GlcNAc(b1-3)GalNAc
# Procedure, shortened: as §1
# [20] = biological target: Gal(b1-3)GlcNAc(b1-6)Gal(b1-4)GlcNAc
# Procedure, shortened: as §1
# [21] = biological target: Gal(b1-3)GlcNAc(b1-6)GalNAc
# Procedure, shortened: as §1
# [22] = biological target: Gal(b1-3)GlcNAc(b1-6)[Gal(b1-3)]GalNAc
# Procedure, shortened: as §1
# Gal(b1-3)GlcNAc6S = biological target: Gal(b1-3)GlcNAc6S
# Procedure, shortened: as §1
# [23] = biological target: Gal(b1-3)[Fuc(a1-4)]GlcNAc
# Procedure, shortened: as §1
# [24] = biological target: Gal(b1-3)[Fuc(a1-4)]GlcNAc(b1-2)Man
# Procedure, shortened: as §1
# [25] = biological target: Gal(b1-3)[Fuc(a1-4)]GlcNAc(b1-2)Man(a1-3)[Gal(b1-3)[Fuc(a1-4)]GlcNAc(b1-2)Man(a1-6)]Man(b1-4)GlcNAc(b1-4)GlcNAc
# Procedure, shortened: as §1
# [26] = biological target: Gal(b1-3)[Fuc(a1-4)]GlcNAc(b1-2)Man(a1-3)[Gal(b1-3)[Fuc(a1-4)]GlcNAc(b1-2)Man(a1-6)]Man(b1-4)GlcNAc(b1-4)[Fuc(a1-6)]GlcNAc
# Procedure, shortened: as §1
# [27] = biological target: Gal(b1-3)[Fuc(a1-4)]GlcNAc(b1-3)Gal(b1-3)[Fuc(a1-4)]GlcNAc
# Procedure, shortened: as §1
# [28] = biological target: Gal(b1-3)[Fuc(a1-4)]GlcNAc(b1-3)Gal(b1-4)GlcNAc
# Procedure, shortened: as §1
# [29] = biological target: Gal(b1-3)[Fuc(a1-4)]GlcNAc(b1-3)Gal(b1-4)[Fuc(a1-3)]GlcNAc
# Procedure, shortened: as §1
# [30] = biological target: Gal(b1-3)[Fuc(a1-4)]GlcNAc(b1-6)GalNAc
# Procedure, shortened: as §1
# [31] = biological target: Gal(b1-3)[GlcNAc(b1-6)]GalNAc
# Procedure, shortened: as §1
# [32] = biological target: Gal(b1-3)[GlcNAc(b1-6)]GlcNAc
# Procedure, shortened: as §1
# [33] = biological target: Gal(b1-3)[Neu5Ac(a2-6)]GalNAc
# Procedure, shortened: as §1
# [34] = biological target: Gal(b1-3)[Neu5Ac(a2-6)]GlcNAc
# Procedure, shortened: as §1
# [35] = biological target: Gal(b1-3)[Neu5Ac(a2-6)]GlcNAc(a1-4)Gal(b1-4)Glc
# Procedure, shortened: as §1
# [36] = biological target: Gal(b1-3)[Neu5Ac(a2-6)]GlcNAc(b1-4)Gal(b1-4)Glc
# Procedure, shortened: as §1
# [37] = biological target: Gal(b1-3)[Neu5Ac(a2-6)]GlcNAc(b1-6)Gal(b1-4)Glc
# Procedure, shortened: as §1
# [38] = biological target: Gal(b1-3)[Neu5Ac(b2-6)]GalNAc
# Procedure, shortened: as §1
# [39] = biological target: Gal(b1-3)[Neu5Ac(b2-6)]GlcNAc
# Procedure, shortened: as §1
# Gal(b1-4)Gal = biological target: Gal(b1-4)Gal
# Procedure, shortened: as §1
# [40] = biological target: Gal(b1-4)GalNAc(a1-3)[Fuc(a1-2)]Gal(b1-4)GlcNAc
# Procedure, shortened: as §1
# [41] = biological target: Gal(b1-4)GalNAc(b1-3)[Fuc(a1-2)]Gal(b1-4)GlcNAc
# Procedure, shortened: as §1
binder,measurement,setting,value
B1,glycan array binding signal (z-score),[1],-0.294
same,glycan array binding signal (z-score),[2],-0.274
same,glycan array binding signal (z-score),[3],-0.302
same,glycan array binding signal (z-score),Gal(b1-3)GlcNAc,-0.296
same,glycan array binding signal (z-score),[4],-0.387
same,glycan array binding signal (z-score),[5],-0.278
same,glycan array binding signal (z-score),Gal(b1-3)GlcNAc(b1-2)Man,-0.39
same,glycan array binding signal (z-score),[6],2.83
same,glycan array binding signal (z-score),[7],1.15
same,glycan array binding signal (z-score),[8],-0.259
same,glycan array binding signal (z-score),[9],1.39
same,glycan array binding signal (z-score),[10],-0.276
same,glycan array binding signal (z-score),[11],-0.292
same,glycan array binding signal (z-score),[12],-0.287
same,glycan array binding signal (z-score),[13],2.07
same,glycan array binding signal (z-score),[14],0.498
same,glycan array binding signal (z-score),[15],-0.001
same,glycan array binding signal (z-score),[16],-0.267
same,glycan array binding signal (z-score),[17],-0.387
same,glycan array binding signal (z-score),[18],-0.278
same,glycan array binding signal (z-score),[19],-0.277
same,glycan array binding signal (z-score),[20],0.097
same,glycan array binding signal (z-score),[21],-0.387
same,glycan array binding signal (z-score),[22],-0.381
same,glycan array binding signal (z-score),Gal(b1-3)GlcNAc6S,-0.383
same,glycan array binding signal (z-score),[23],-0.271
same,glycan array binding signal (z-score),[24],-0.385
same,glycan array binding signal (z-score),[25],-0.189
same,glycan array binding signal (z-score),[26],0.117
same,glycan array binding signal (z-score),[27],-0.233
same,glycan array binding signal (z-score),[28],-0.284
same,glycan array binding signal (z-score),[29],-0.273
same,glycan array binding signal (z-score),[30],-0.385
same,glycan array binding signal (z-score),[31],-0.309
same,glycan array binding signal (z-score),[32],-0.312
same,glycan array binding signal (z-score),[33],-0.272
same,glycan array binding signal (z-score),[34],-0.332
same,glycan array binding signal (z-score),[35],-0.335
same,glycan array binding signal (z-score),[36],-0.385
same,glycan array binding signal (z-score),[37],-0.195
same,glycan array binding signal (z-score),[38],-0.271
same,glycan array binding signal (z-score),[39],-0.39
same,glycan array binding signal (z-score),Gal(b1-4)Gal,-0.311
same,glycan array binding signal (z-score),[40],-0.283
same,glycan array binding signal (z-score),[41],-0.286

# Reference: the supplement of paper PMC8728848
